# Data: the supplement of paper PMC8728848
# Some of the results follow.
# B1: Gal 3 (Homo sapiens), P17931 (protein)
# chain: MADNFSLHDALSGSGNPNPQGWPGAWGNQPAGAGGYPGASYPGAYPGQAPPGAYPGQAPPGAYHGAPGAYPGAPAPGVYPGPPSGPGAYPSSGQPSAPGAYPATGPYGAPAGPLIVPYNLPLPGGVVPRMLITILGTVKPNANILDFQRGNDVAFHFNPRFNENNRRVIVCNTKLDNNWGREEIQSVFPFESGKPFKIQVLVEPDHFKVAVNDAHLLQYNHRVKKLNEISKLGISGDIDLTSASYTMI
# Legend:
# Test in all cases: glycan array binding signal (z-score within array); higher = stronger binding
# Details in all cases: glycan notation: IUPAC condensed, linker removed; mutation: R186I
# [1] = biological target: Neu5Ac(a2-3)Gal(b1-3)GlcNAc(b1-3)Gal(b1-3)GlcNAc
# In short: (§1)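 Arrays were curated from the Consortium for Functional Glycomics database, 3228 in total, and kept only where the protein sequence was available. Binding is expressed as a within-array Z-score. This score was averaged across arrays of the same protein sequence at different concentrations or buffers and across linkers, and negative values can be read as non-binding.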
# [2] = biological target: Neu5Ac(a2-3)Gal(b1-3)GlcNAc(b1-3)Gal(b1-4)GlcNAc
# In short: as §1
# [3] = biological target: Neu5Ac(a2-3)Gal(b1-3)GlcNAc(b1-3)GalNAc
# In short: as §1
# [4] = biological target: Neu5Ac(a2-3)Gal(b1-3)GlcNAc6S
# In short: as §1
# [5] = biological target: Neu5Ac(a2-3)Gal(b1-3)[Fuc(a1-4)]GlcNAc
# In short: as §1
# [6] = biological target: Neu5Ac(a2-3)Gal(b1-3)[Fuc(a1-4)]GlcNAc(b1-3)Gal(b1-3)[Fuc(a1-4)]GlcNAc
# In short: as §1
# [7] = biological target: Neu5Ac(a2-3)Gal(b1-3)[Fuc(a1-4)]GlcNAc(b1-3)Gal(b1-4)[Fuc(a1-3)]GlcNAc
# In short: as §1
# [8] = biological target: Neu5Ac(a2-3)Gal(b1-3)[Neu5Ac(a2-3)Gal(b1-4)]GlcNAc
# In short: as §1
# [9] = biological target: Neu5Ac(a2-3)Gal(b1-3)[Neu5Ac(a2-6)]GalNAc
# In short: as §1
# Neu5Ac(a2-3)Gal(b1-4)Glc = biological target: Neu5Ac(a2-3)Gal(b1-4)Glc
# In short: as §1
# [10] = biological target: Neu5Ac(a2-3)Gal(b1-4)GlcNAc
# In short: as §1
# [11] = biological target: Neu5Ac(a2-3)Gal(b1-4)GlcNAc(b1-2)Man(a1-3)[GlcNAc(b1-2)Man(b1-4)GlcNAc(b1-2)Man(a1-6)]Man(b1-4)GlcNAc(b1-4)GlcNAc
# In short: as §1
# [12] = biological target: Neu5Ac(a2-3)Gal(b1-4)GlcNAc(b1-2)Man(a1-3)[Neu5Ac(a2-6)Gal(b1-4)GlcNAc(b1-2)Man(a1-6)]Man(b1-4)GlcNAc(b1-4)GlcNAc
# In short: as §1
# [13] = biological target: Neu5Ac(a2-3)Gal(b1-4)GlcNAc(b1-3)Gal(b1-3)GlcNAc
# In short: as §1
# [14] = biological target: Neu5Ac(a2-3)Gal(b1-4)GlcNAc(b1-3)Gal(b1-4)GlcNAc
# In short: as §1
# [15] = biological target: Neu5Ac(a2-3)Gal(b1-4)GlcNAc(b1-3)Gal(b1-4)GlcNAc(b1-3)Gal(b1-4)GlcNAc
# In short: as §1
# [16] = biological target: Neu5Ac(a2-3)Gal(b1-4)GlcNAc(b1-3)Gal(b1-4)[Fuc(a1-3)]GlcNAc
# In short: as §1
# [17] = biological target: Neu5Ac(a2-3)Gal(b1-4)GlcNAc(b1-3)GalNAc
# In short: as §1
# [18] = biological target: Neu5Ac(a2-3)Gal(b1-4)GlcNAc(b1-6)[Gal(b1-3)]GalNAc
# In short: as §1
# [19] = biological target: Neu5Ac(a2-3)Gal(b1-4)GlcNAc(b1-6)[Neu5Ac(a2-3)Gal(b1-3)]GalNAc
# In short: as §1
# [20] = biological target: Neu5Ac(a2-3)Gal(b1-4)GlcNAc6S
# In short: as §1
# [21] = biological target: Neu5Ac(a2-3)Gal(b1-4)[Fuc(a1-3)]GlcNAc
# In short: as §1
# [22] = biological target: Neu5Ac(a2-3)Gal(b1-4)[Fuc(a1-3)]GlcNAc(b1-3)Gal
# In short: as §1
# [23] = biological target: Neu5Ac(a2-3)Gal(b1-4)[Fuc(a1-3)]GlcNAc(b1-3)Gal(b1-4)GlcNAc
# In short: as §1
# [24] = biological target: Neu5Ac(a2-3)Gal(b1-4)[Fuc(a1-3)]GlcNAc(b1-3)Gal(b1-4)[Fuc(a1-3)]GlcNAc(b1-3)Gal(b1-4)[Fuc(a1-3)]GlcNAc
# In short: as §1
# [25] = biological target: Neu5Ac(a2-3)Gal(b1-4)[Fuc(a1-3)]GlcNAc(b1-3)GalNAc
# In short: as §1
# [26] = biological target: Neu5Ac(a2-3)Gal(b1-4)[Fuc(a1-3)]GlcNAc(b1-6)[Gal(b1-3)]GalNAc
# In short: as §1
# [27] = biological target: Neu5Ac(a2-3)Gal(b1-4)[Fuc(a1-3)]GlcNAc(b1-6)[Neu5Ac(a2-3)Gal(b1-3)]GalNAc
# In short: as §1
# [28] = biological target: Neu5Ac(a2-3)Gal(b1-4)[Fuc(a1-3)]GlcNAc6S
# In short: as §1
# [29] = biological target: Neu5Ac(a2-3)Gal6S(b1-4)GlcNAc
# In short: as §1
# [30] = biological target: Neu5Ac(a2-3)Gal6S(b1-4)[Fuc(a1-3)]GlcNAc
# In short: as §1
# Neu5Ac(a2-3)GalNAc = biological target: Neu5Ac(a2-3)GalNAc
# In short: as §1
# [31] = biological target: Neu5Ac(a2-3)GalNAc(b1-4)GlcNAc
# In short: as §1
# [32] = biological target: Neu5Ac(a2-3)[GalNAc(b1-4)]Gal(b1-4)Glc
# In short: as §1
# [33] = biological target: Neu5Ac(a2-3)[GalNAc(b1-4)]Gal(b1-4)GlcNAc
# In short: as §1
# [34] = biological target: Neu5Ac(a2-3)[GalNAc(b1-4)]Gal(b1-4)GlcNAc(b1-3)GalNAc
# In short: as §1
# [35] = biological target: Neu5Ac(a2-3)[Neu5Ac(a2-6)]GalNAc
# In short: as §1
# Neu5Ac(a2-6)Gal = biological target: Neu5Ac(a2-6)Gal
# In short: as §1
# Neu5Ac(a2-6)Gal(b1-4)Glc = biological target: Neu5Ac(a2-6)Gal(b1-4)Glc
# In short: as §1
# [36] = biological target: Neu5Ac(a2-6)Gal(b1-4)GlcNAc
# In short: as §1
binder,measurement,setting,value
B1,glycan array binding signal (z-score),[1],-0.18
same,glycan array binding signal (z-score),[2],-0.003
same,glycan array binding signal (z-score),[3],-0.186
same,glycan array binding signal (z-score),[4],-0.197
same,glycan array binding signal (z-score),[5],-0.194
same,glycan array binding signal (z-score),[6],-0.19
same,glycan array binding signal (z-score),[7],0.035
same,glycan array binding signal (z-score),[8],-0.039
same,glycan array binding signal (z-score),[9],-0.187
same,glycan array binding signal (z-score),Neu5Ac(a2-3)Gal(b1-4)Glc,-0.187
same,glycan array binding signal (z-score),[10],-0.195
same,glycan array binding signal (z-score),[11],-0.073
same,glycan array binding signal (z-score),[12],-0.159
same,glycan array binding signal (z-score),[13],-0.181
same,glycan array binding signal (z-score),[14],-0.18
same,glycan array binding signal (z-score),[15],-0.151
same,glycan array binding signal (z-score),[16],-0.162
same,glycan array binding signal (z-score),[17],-0.172
same,glycan array binding signal (z-score),[18],-0.189
same,glycan array binding signal (z-score),[19],-0.18
same,glycan array binding signal (z-score),[20],-0.183
same,glycan array binding signal (z-score),[21],-0.164
same,glycan array binding signal (z-score),[22],-0.158
same,glycan array binding signal (z-score),[23],0.013
same,glycan array binding signal (z-score),[24],-0.039
same,glycan array binding signal (z-score),[25],-0.166
same,glycan array binding signal (z-score),[26],-0.151
same,glycan array binding signal (z-score),[27],-0.078
same,glycan array binding signal (z-score),[28],-0.194
same,glycan array binding signal (z-score),[29],-0.155
same,glycan array binding signal (z-score),[30],0.163
same,glycan array binding signal (z-score),Neu5Ac(a2-3)GalNAc,-0.2
same,glycan array binding signal (z-score),[31],-0.161
same,glycan array binding signal (z-score),[32],-0.189
same,glycan array binding signal (z-score),[33],-0.177
same,glycan array binding signal (z-score),[34],-0.192
same,glycan array binding signal (z-score),[35],-0.193
same,glycan array binding signal (z-score),Neu5Ac(a2-6)Gal,-0.166
same,glycan array binding signal (z-score),Neu5Ac(a2-6)Gal(b1-4)Glc,-0.189
same,glycan array binding signal (z-score),[36],-0.02
